In all, about 310,000 compounds went through this assay and about 2,200 (0.71%) showed an effect of 50% or more. The effect is printed as a negative number. This is one part of the list.
biological target: human ether-à-go-go-related gene (hERG) potassium channel (human, UniProt Q12809); assay: primary screen, population patch clamp on CHO cells stably expressing hERG
Sequence (Q12809 whole entry, looked up): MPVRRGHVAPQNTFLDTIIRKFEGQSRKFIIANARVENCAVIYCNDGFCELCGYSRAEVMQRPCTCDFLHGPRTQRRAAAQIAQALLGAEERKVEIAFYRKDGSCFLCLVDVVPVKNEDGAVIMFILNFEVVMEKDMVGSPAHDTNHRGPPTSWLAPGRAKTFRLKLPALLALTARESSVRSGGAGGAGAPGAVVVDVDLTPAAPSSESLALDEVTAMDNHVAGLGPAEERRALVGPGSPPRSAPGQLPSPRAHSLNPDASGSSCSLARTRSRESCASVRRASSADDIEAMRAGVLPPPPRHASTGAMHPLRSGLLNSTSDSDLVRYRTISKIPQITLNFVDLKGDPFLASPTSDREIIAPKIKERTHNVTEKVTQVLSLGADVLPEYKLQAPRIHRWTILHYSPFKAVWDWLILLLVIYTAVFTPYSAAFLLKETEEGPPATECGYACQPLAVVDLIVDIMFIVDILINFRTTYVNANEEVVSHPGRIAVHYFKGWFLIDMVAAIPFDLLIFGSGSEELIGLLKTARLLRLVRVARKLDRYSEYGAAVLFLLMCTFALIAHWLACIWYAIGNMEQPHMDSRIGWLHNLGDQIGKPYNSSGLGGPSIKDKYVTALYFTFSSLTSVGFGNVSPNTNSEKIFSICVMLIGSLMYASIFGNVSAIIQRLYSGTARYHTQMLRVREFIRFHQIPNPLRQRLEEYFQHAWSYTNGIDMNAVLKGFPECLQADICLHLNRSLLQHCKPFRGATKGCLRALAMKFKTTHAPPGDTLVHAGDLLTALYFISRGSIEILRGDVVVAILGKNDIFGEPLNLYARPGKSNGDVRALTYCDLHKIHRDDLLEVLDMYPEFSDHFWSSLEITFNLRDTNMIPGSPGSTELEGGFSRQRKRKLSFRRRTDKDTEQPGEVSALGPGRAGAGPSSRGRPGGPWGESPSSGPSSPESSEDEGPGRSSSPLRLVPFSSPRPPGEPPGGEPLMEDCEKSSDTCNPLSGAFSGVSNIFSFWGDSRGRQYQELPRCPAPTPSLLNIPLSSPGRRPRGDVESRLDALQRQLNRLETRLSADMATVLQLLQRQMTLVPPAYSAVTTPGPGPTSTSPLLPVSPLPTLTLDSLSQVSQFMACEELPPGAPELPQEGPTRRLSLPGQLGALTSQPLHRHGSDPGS

| SMILES | hERG current change (%, negative = inhibition) at 1uM |
| --- | --- |
| CC(CNC(=O)CN1C(=O)C(=O)N(C2CCCC2)C1=O)c1ccccc1 (centres unmarked) | 0.769% |
| O=C(NCc1ccncc1)C12CC3CC(CC(Cl)(C3)C1)C2 | 13.1% |
| CCOC(=O)C1CCCN(C(=O)c2cc3cc(OC)c(OC)cc3[nH]2)C1 (centres unmarked) | 10.9% |
| CC(=O)Nc1ccc(S(=O)(=O)Nc2nc3ccccc3nc2Nc2ccc(S(N)(=O)=O)cc2)cc1 | -2.28% |
| O=C(NC(=S)Nc1nc(-c2ccccc2)cs1)c1cccs1 | 16% |
| COc1cccc(-c2nc(-c3ccc(NC(=O)c4cccs4)cc3)no2)c1 | 7.71% |
| COc1cc(OC)c(S(=O)(=O)NCc2ccco2)cc1S(=O)(=O)NCc1ccco1 | 3.02% |
| CC(/C=N\NC(=O)c1ccc2c(c1)OCO2)c1ccccc1 (centres unmarked) | -8.04% |
| CCOC(=O)[C@@H]1[C@H]2COc3ccc(Br)cc3[C@@H]2N2C(=O)N(c3ccccc3)C(=O)[C@@]12C | 4.9% |
| Cc1cccc(C(=O)N2CCCCCC2)c1 | 9.78% |
| CS(=O)(=O)c1ccc(C(=O)N2CCC(C(=O)O)(c3ccccc3)CC2)cc1 | 15.8% |
| C[N+](C)(C)CC(=O)N/N=C/c1c2ccccc2cc2ccccc12.[Cl-] | 5.3% |
| Cc1c(S(=O)(=O)N2CCc3ccccc3C2)c(=O)n(C)c(=O)n1C | 5.86% |
| CCCCOc1ccc(CSc2nnc(C)n2N)cc1[N+](=O)[O-] | -2.42% |
| COc1cc(NC(=O)c2ccc(C(C)(C)C)cc2)c(OC)cc1NC(=O)CN1CCCCC1 | 28.7% |
| COC(=O)Nc1ccc(SCC(=O)c2cccc([N+](=O)[O-])c2)cc1 | 6.19% |
| OC1CCCN(c2c3c(nc4cc(-c5cccc(F)c5)nn24)CCCC3)C1 (centres unmarked) | 11.5% |
| CCOc1ccccc1CNCCN1CCOCC1.Cl | 14.7% |
| O=C(CSc1nnc2ccc(-c3ccccn3)nn12)NCCc1ccccc1 | 4.75% |
| Cn1c(NN)nc2ccccc2c1=O | 11% |
| CCOc1ccc(NC(=O)[C@@H](NC(=O)c2ccccc2Br)C(C)C)cc1 | 2.82% |
| Cc1ccsc1/C=N/Nc1ccc(C(=O)O)cc1 | 12.4% |
| CCn1c2ccccc2c2cc(NS(=O)(=O)c3ccccc3C)ccc21 | 10.6% |

| SMILES | hERG current change (%, negative = inhibition) at 1uM |
| --- | --- |
| CCOc1ccc(N2CC(C(=O)Nc3ccc(S(=O)(=O)NCC4CCCO4)cc3)CC2=O)cc1 (centres unmarked) | 12.4% |
| COc1cccc(/C=C/C(=O)OCC(=O)Nc2ccc(N3CCOCC3)cc2)c1OC | 13.6% |
| CCc1ccc(N2C(=O)CN(Cc3cc(OC)c(OC)c(OC)c3)C2=S)cc1 | 1.21% |
| COc1ccc(OC)c(C2C(C(C)=O)=C(O)C(=O)N2CCN2CCOCC2)c1 (centres unmarked) | -5.3% |
| CCOc1ccc(NC(=O)COC(=O)C2C3CC4OC(=O)C2C4C3)cc1 (centres unmarked) | 16.8% |
| O=C(NCc1ccccc1)c1ccc2nc(N3CCOCC3)sc2c1 | 7.69% |
| Cc1ccc(C2=NS(=O)(=O)N(C)C(C(=O)NCc3ccco3)=C2)cc1 | -34.6% |
| CC(C)N(Cc1nc(-c2ccc(Cl)cc2)no1)C(=O)CN(C)S(=O)(=O)c1ccc(Cl)cc1 | -5.47% |
| O=C(Nc1cc2c(cc1Br)OCCO2)c1cccnc1 | 5.77% |
| CCOc1ccc(NC(=O)c2cc3ccccc3cc2OC)cc1 | 13.8% |
| NS(=O)(=O)c1ccc(NC(=O)COC(=O)COc2ccccc2)cc1 | 14% |
| CCOc1ccc(Nc2nc(C)cc(C)c2C#N)cc1 | 11.1% |
| CCOc1ccccc1NC(=O)Cn1nnc(C(=O)Nc2ccc(C)cc2)c1N | -2.65% |
| CC(C)c1ccc(S(=O)(=O)N2CCN(CC(=O)Nc3ccc4c(c3)OCO4)CC2)cc1 | 4.61% |
| CC(C)OC(=O)Cn1cc(C#N)c2ccccc21 | 12.9% |
| COC(=O)CCCC1=CC2=CC(=O)C(C)(OC(=O)c3cccs3)C(=O)C2=CN1CCCCO (centres unmarked) | 5.62% |
| COC(=O)C1=C(c2ccc(-c3ccccc3)c(F)c2)C[C@@H]2CC[C@H]1N2C(=O)NCc1cccc2ccccc12 | 17.9% |
| Cc1nc2cc(NS(=O)(=O)c3ccccc3F)ccc2s1 | 4.83% |
| CCOC(=O)c1c(NC(=O)c2cccs2)sc(CC)c1-c1cccs1 | -10.4% |
| COc1cccc(-c2noc(N)c2C#N)c1 | 17.5% |
| Cc1ccc(NC(=O)C2C3C=CC(O3)C2C(=O)O)c(C)c1 (centres unmarked) | 12.8% |
| COc1cccc(CNC(=O)c2ccc(NC3=NC4CS(=O)(=O)CC4S3)cc2)c1 (centres unmarked) | 0.376% |
| COc1nc(/C(N)=N/O)nc(N2CCCCC2)n1 | 12.3% |

| SMILES | hERG current change (%, negative = inhibition) at 1uM |
| --- | --- |
| COc1ccccc1NS(=O)(=O)c1cccc(NC(=O)c2cc3ccccc3oc2=O)c1 | 19.4% |
| COc1nc(C#N)c(N2CCOCC2)o1 | 13% |
| COc1ccc(Cn2c3ccc(OC)cc3c3nc4ccccc4nc32)cc1 | 17.1% |
| Cc1ccc(CSc2[nH]c(=O)ncc2C)cc1 | 10.8% |
| Cc1cccc(C)c1NC(=O)c1cc(S(=O)(=O)N2CCOCC2)ccc1F | -0.823% |
| NCCCCCC(=O)O | 4.53% |
| COc1ccc(N(C(=O)c2ccc3c(c2)OCO3)C2C=CS(=O)(=O)C2)c(OC)c1 (centres unmarked) | -0.281% |
| c1ccc2oc(-c3nn4c(Cn5cnc6ccccc65)nnc4s3)cc2c1 | 7.33% |
| CN(C)S(=O)(=O)c1cccc(NC(=O)CCc2nc3sc4c(c3c(=O)[nH]2)CCCC4)c1 | 2% |
| Cc1cccc(NC(=O)c2ccc(S(=O)(=O)NCc3ccco3)cc2)n1 | 1.74% |
| O=C(CN1C(=O)c2ccccc2C1=O)N1CCN(c2ccccc2)CC1 | -0.891% |
| O=[N+]([O-])c1cc(S(=O)(=O)N2CCCC2)ccc1NN=C1CCCCC1 | 12.5% |
| CCc1ccc(CN(Cc2cccnc2)C(=O)/C=C/c2ccc(OC)cc2)cc1 | 12.2% |
| Cc1cc(C)n(CC(=O)c2ccccc2)c(=O)c1C#N | 13.8% |
| O=C(CCNS(=O)(=O)c1ccccc1C(F)(F)F)NCCCc1ccccc1 | 8.65% |
| O=c1c(-c2ccccc2Cl)c[nH]n1-c1ccccc1 | 7.14% |
| c1ccc2c(c1)NCC1CCCN21 (centres unmarked) | 11.7% |
| NS(=O)(=O)c1ccc(N2N=C(c3ccccc3)CC2c2ccccc2)cc1 (centres unmarked) | 4.5% |
| Cc1ccc([N+](=O)[O-])cc1NC(=O)CN(C)CCOc1ccccc1.O=C(O)C(=O)O | 12.1% |
| CC1=C(C(=O)Nc2ccccc2)C(c2ccco2)C(C#N)=C(SCC(=O)Nc2cccc(C)c2C)N1 (centres unmarked) | 17.4% |
| CSCCC(=O)N1CCCC(CNC(=O)c2ccccc2Cl)C1 (centres unmarked) | 8.78% |
| COc1ccc2[nH]c(=O)c(CNc3ccc(C)cc3C)cc2c1 | 5.37% |
| COc1ccc(Cc2n[nH]c(=O)c3ccccc23)cc1OC | 2.57% |

| SMILES | hERG current change (%, negative = inhibition) at 1uM |
| --- | --- |
| NC(=O)c1cc2ccccc2o/c1=N/NC(=O)c1cccc(F)c1 | 6.98% |
| O=C(NCC1CC1)C1(C(F)(F)F)CC(CCc2ccccc2)CCCO1 (centres unmarked) | 13.7% |
| Cn1nc(N)c2c1N=P(N1CCOCC1)(N1CCOCC1)N=C2c1ccccc1 | 8.58% |
| Cc1cc(C(=O)COC(=O)c2ccc[nH]c2=O)c(C)n1C1CC1 | 2.46% |
| Cc1ccccc1-n1c(-c2ccncc2)n[nH]c1=S | 4.45% |
| COc1ccc(CN2CCN(CCSc3ccc(C)cc3)CC2)c(OC)c1OC.O=C(O)C(=O)O | -9.33% |
| CC(NC(=O)CNC(=O)c1cccc(Cl)c1)c1ccccc1 (centres unmarked) | 11.2% |
| Cc1ccc(CC(=O)Nc2cccc([N+](=O)[O-])c2)cc1 | 9.09% |
| CCn1cc(/C=N/NS(=O)(=O)c2ccc(OC)cc2)c(C)n1 | 8.95% |
| CCOC(=O)c1cc(-c2ccccc2)n[nH]1 | 15% |
| O=C1CC(N2CCSCC2)C(=O)N1c1ccccc1 (centres unmarked) | 17.6% |
| Cn1c(N)c(C(=O)CCl)c(=O)n(Cc2ccccc2)c1=O | 12.5% |
| CC(C)Oc1ccc(C(=O)CCN2CCOCC2)cc1 | 13.6% |
| O=C(O)CCC(=O)N(Cc1ccco1)c1nc(-c2ccccc2)cs1 | -5.17% |
| CCOc1cc(-c2nc(-c3ccc(OC)cc3)no2)cc(OCC)c1OCC | 9.95% |
| O=c1nc2ccccn2c2ccc(S(=O)(=O)N3CCCCC3)cc12 | 12.6% |
| COc1cc(C(=O)NNC(=O)c2cc(C)[nH]n2)cc(OC)c1OC | 13.5% |
| O=C(CSc1nnc(CNc2ccccc2)o1)N1CCc2ccccc21 | 0.363% |
| CC(=O)c1cn(CC(=O)Nc2ccccc2C)c2ccccc12 | 19.2% |
| Cc1ccc(S(=O)(=O)CCC(=O)Nc2cccc(C)c2)cc1 | 12.4% |

— paper PMC4336329 (PLoS ONE, 2015)
